Results reported in patent publication US20240190978A1 (CSBIOASSET, published 2024).

Experiments:
human CD80-Avi-tag = target: T1, human CD80-Avi-tag (human, UniProt P33681 35-242); assay: SPR (Biacore 8K, 25 °C), hCD80 immobilized, 1:1 binding model
T1 construct: also called immobilized human CD80; not shown: Avi-tag
T1 sequence (looked up): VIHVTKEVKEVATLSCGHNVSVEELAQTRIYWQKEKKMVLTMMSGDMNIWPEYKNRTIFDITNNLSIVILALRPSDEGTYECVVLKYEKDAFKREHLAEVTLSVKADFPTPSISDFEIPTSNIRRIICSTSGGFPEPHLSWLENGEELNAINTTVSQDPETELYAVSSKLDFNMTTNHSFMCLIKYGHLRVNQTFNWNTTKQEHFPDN
Procedure: (§1) To evaluate binding of the bispecific binding proteins disclosed herein, surface plasmon resonance (SPR) studies were performed on a Biacore 8k instrument (GE Healthcare) at 25° C. The binding of the protein analytes was tested in buffer: 10 mM HEPES, 150 mM NaCl, 3 mM EDTA, 0.05% TWEEN20, pH7.4 on surfaces consisting of a low density (˜20RU) of human IL6R-Avi-tag or human CD80-Avi-tag which had been immobilized on NA-coated CM5 chips using standard protocol. The protein analytes were injected in a titration series at a flowrate of 50 ul/min. The data were analyzed using the Biacore Insight Evaluation software. 1:1 binding kinetic and affinity models are applied for experimental data analysis.

human IL6R-Avi-tag = target: T2, human IL6R-Avi-tag (human, UniProt P08887 20-365, limits assumed); assay: SPR (Biacore 8K, 25 °C), hIL6R immobilized, 1:1 binding model
T2 construct: Immobilized on NA-coated CM5 chips at about 20 RU; also called immobilized human IL6R; not shown: Avi-tag
T2 sequence (looked up): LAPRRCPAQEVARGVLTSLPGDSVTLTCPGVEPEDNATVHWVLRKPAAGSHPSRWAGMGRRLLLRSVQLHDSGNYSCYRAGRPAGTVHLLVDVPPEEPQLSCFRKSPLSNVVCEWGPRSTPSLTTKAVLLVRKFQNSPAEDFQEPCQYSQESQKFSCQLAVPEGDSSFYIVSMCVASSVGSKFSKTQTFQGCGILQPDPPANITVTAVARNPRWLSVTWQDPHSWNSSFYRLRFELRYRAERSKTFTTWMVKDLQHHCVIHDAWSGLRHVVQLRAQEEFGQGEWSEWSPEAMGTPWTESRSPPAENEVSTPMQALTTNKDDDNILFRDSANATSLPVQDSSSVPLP
Procedure: as §1

Kd (human CD80-Avi-tag): 154 nM
koff (human CD80-Avi-tag): 0.12 s⁻¹
kon (human CD80-Avi-tag): 780000 M⁻¹ s⁻¹
Kd (human IL6R-Avi-tag): 0.107 nM
koff (human IL6R-Avi-tag): 7.64e-05 s⁻¹
kon (human IL6R-Avi-tag): 713000 M⁻¹ s⁻¹
B1: α-IL6R/CTLA-4 bispecific protein (SEQ ID NO: 1 with SEQ ID NO: 3) (bispecific antibody, human IgG4 S228P, kappa)
heavy: QVQLQESGPGLVRPSQTLSLTCTVSGYSITSDHAWSWVRQPPGRGLEWIGYISYSGITTYNPSLKSRVTMLRDTSKNQFSLRLSSVTAADTAVYYCARSLARTTAMDYWGQGSLVTVSSASTKGPSVFPLAPCSRSTSESTAALGCLVKDYFPEPVTVSWNSGALTSGVHTFPAVLQSSGLYSLSSVVTVPSSSLGTKTYTCNVDHKPSNTKVDKRV[letters of human IgG4 Fc with S228P (EU numbers) left out]AGGGGSGGGGSGGGGSGGGGSMHVAQPAVVLASSRGIASFVCEYASPGKATEVRVTVLRQADSQVTEVCAATYMMGNELTFLDDSICTGTSSGNQVNLTIQGLRAMDTGLYICKVELMYPPPYYLGIGNGTQIYVIDPEPCPDSD
light: DIQMTQSPSSLSASVGDRVTITCRASQDISSYLNWYQQKPGKAPKLLIYYTSRLHSGVPSRFSGSGSGTDFTFTISSLQPEDIATYYCQQGNTLPYTFGQGTKVEIKRTVAAPSVFIFPPSDEQLKSGTASVVCLLNNFYPREAKVQWKVDNALQSGNSQESVTEQDSKDSTYSLSSTLTLSKADYEKHKVYACEVTHQGLSSPVTKSFNRGEC
notes: Bivalent for IL6R through the Fab arms and for CD80/CD86 through the C-terminal CTLA-4 ectodomain; also called Duotein-A; Duotein
